Laboratory results as given in PubChem BioAssay AID1240 (Sanford-Burnham Center for Chemical Genomics, 2008).
Out of some 50,000 compounds screened, about 800 (1.6%) showed an effect of 50% or more. Some of the results follow.

What follows are molecules tested against Bcl-2-like protein 10 (Homo sapiens) (UniProt Q9HD36) (assay: Phenotype converters, Bcl-B/TR3 peptide binding displacement, primary biochemical FP (AID 1240;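 also: 0% = Bcl-B with tracer peptide and DMSO and 100% = tracer peptide lacking Bcl-B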)). Conditions: GST-Bcl-B / FITC-TR3 peptide fluorescence polarization; stronger effect = higher value; compound at 3.75 mg/L.
UniProt Q9HD36, sequence (Q9HD36 whole entry, looked up): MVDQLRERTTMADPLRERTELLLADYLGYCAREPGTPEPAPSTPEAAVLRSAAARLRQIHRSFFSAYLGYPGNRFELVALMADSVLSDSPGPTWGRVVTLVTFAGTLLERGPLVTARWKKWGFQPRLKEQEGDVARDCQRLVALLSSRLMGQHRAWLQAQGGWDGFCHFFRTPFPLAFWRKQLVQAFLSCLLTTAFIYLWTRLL

Compound | displacement
CC(C)(C)C1CCc2c(sc(NC(=O)c3ccncc3)c2C#N)C1 (centres undefined) | -0.9%
COc1cc(/C=N/NC(N)=O)ccc1O | -11%
CCCCOc1ccc(NC(=O)CSCC(=O)Nc2ccc3ccccc3c2)cc1 | 11.2%
COc1ccc(/C=C2\C(=O)NC(=O)N(c3ccccc3)C2=O)c2ccccc12 | 17.5%
CCn1c(C(O)c2cc(OC)ccc2OC)nc2ccccc21 (centres undefined) | -2.2%
O=C(NN1C(=O)CSC1=S)c1ccccc1[N+](=O)[O-] | -7.3%
Cc1ccc(C(=O)NC(NC(=S)Nc2ccccc2Cl)C(Cl)(Cl)Cl)cc1 (centres undefined) | -10.7%
O=C(N/N=C/c1ccccc1Cl)c1ccccn1 | -9.6%
COc1ccccc1N1CCN(S(C)(=O)=O)CC1 | -6.8%
O=C(/C=C/Nc1ccccc1NS(=O)(=O)Cc1ccccc1)c1ccc2c(c1)OCO2 | 13.2%
O=C(O)CNC(=O)/C(=C\c1cccnc1)NC(=O)c1ccccc1 | -7.5%
CS(=O)(=O)N(Cc1ccc(C(=O)N2CCc3ccccc3C2)cc1)c1ccccc1 | -0.6%
Cc1nnc(Nc2ccc3c(c2)ncn3-c2ccccc2)c2ccccc12 | -1%
c1ccc(-c2ccc(Oc3nc4ccccc4n4cnnc34)cc2)cc1 | 10.4%
COc1ccc(-c2nnc(OC)c3ccccc23)cc1 | -4.1%
Cc1ccc(/C=C2\SC(=S)N(CC(C)C)C2=O)cc1 | 9.8%
COc1ccc(C(=O)N2CCN(C3CCC(c4ccccc4)CC3)CC2)cc1 (centres undefined) | -21.7%
O=C(/C=C/c1ccc(F)cc1)Nc1cccc([N+](=O)[O-])c1 | 16.4%
CCOc1ccc(N(CC(=O)Nc2ccccc2Br)S(=O)(=O)c2ccc(SC)cc2)cc1 | 1.7%
Cc1cc(C)c(NC(=O)C(C)Sc2ncn[nH]2)c(C)c1 (centres undefined) | -0.6%
COC(=O)c1c(C)oc2ccc(OC(=O)C(C)(C)C)cc12 | 12.6%
CC(=O)Nc1ccc(S(=O)(=O)Nc2ccc(I)cc2)cc1 | -5.4%
COc1ccc(/C=C(/C#N)C(=O)Nc2cccc(Br)c2)c(C)c1 | 25.4%

Compound | displacement
CC(C)=CCCC(C)N(C=O)C(C)CCC=C(C)C (centres undefined) | -10.3%
C=CCOC(=O)C(CC=C)(C(F)(F)F)C(F)(F)F | 1.8%
Cc1ccc(-c2ccc(OCC(=O)Nc3ccccc3F)cc2)cc1 | -5.1%
Cc1ccc(C(=O)Nc2c(C(=O)NCc3ccco3)cnn2-c2ccccc2)cc1 | 9.9%
O=C(CCN1C(=O)/C(=C/c2cccs2)SC1=S)Nc1cccc(F)c1 | -21.4%
Cc1ccc(N=C(NO)c2ccc(Cl)cc2Cl)cc1 | 15%
S=C(Nc1ccccc1)Nc1ccc(Oc2ccccc2)cc1 | -12%
COc1ccc([N+](=O)[O-])cc1C1NN=C(c2ccccc2)S1 (centres undefined) | -2.8%
COc1cc(/C=C2/C(=O)NC(=O)N(c3ccccc3)C2=O)ccc1OCC(=O)O | 6.2%
O=C(O)C1(c2ccc3c(c2)OCCO3)CCCC1 | -2.1%
COc1cc(/C=C2/C(=N)N3N=C(C(C)C)SC3=NC2=O)cc(Cl)c1OCCOc1ccccc1 | -39%
CCOC(=O)C1=C(O)/C(=C/c2ccc(N(C)C)cc2)SC1=Nc1ccc(OC)cc1 | 3.8%
Cc1cc2ncn(C(=O)c3ccc(F)cc3)c2cc1C | -10.4%
COc1ccc(NC(=O)c2ccccc2[N+](=O)[O-])cc1Cl | -1.8%
O=C1C2C3CC4C2C(=O)C2(c5ccccc5)C1C3C42 (centres undefined) | 1.4%
CC1CCc2c(sc(NC(=O)COc3ccccc3C(C)(C)C)c2C(N)=O)C1 (centres undefined) | 15.1%
COc1cccc(Oc2nc(N)[nH]c(=O)c2Br)c1 | -3.3%
O=C(c1ccco1)N(CCN(Cc1ccccc1)C(=O)c1ccco1)Cc1ccccc1 | -3.7%
O=[N+]([O-])c1cccc(S(=O)(=O)Nc2ccc(OCc3ccccc3)cc2)c1 | -0.4%
S=C(NCc1ccccc1)Nc1ccc(Cl)cc1 | -5.8%
CC1CCN(C(=S)Nc2ccccc2)CC1 | -5.3%
Cc1c(Cl)cccc1-c1ccc(C=O)o1 | 19.1%
CCC(C(=O)NCc1ccccc1OC)c1ccccc1 (centres undefined) | -7.1%

Compound | displacement
CCOc1cc(OCC)cc(C(=O)Nc2ccc(N3CCOCC3)cc2)c1 | 10.2%
COc1ccc(N2C(=O)C3C(C2=O)C2C=CC3C23CC3)cc1 (centres undefined) | 1%
CC(/C=C/c1ccccc1)=N\Nc1nnc2c(n1)[nH]c1ccccc12 | 7.2%
CC(=O)OC1=NN(c2ccccc2)CC1 | 3.3%
CC(=O)N1C(=O)/C(=C/C(=O)c2ccccc2)c2ccccc21 | -2.4%
Clc1ccc(CN2CCN(C3CCCC3)CC2)cc1 | -3.3%
Cc1cc(/C=N/n2cnnc2)c(C)n1-c1ccc(I)cc1 | 7.3%
Cc1cc(OCC(=O)Nc2ccc(NC(=O)c3ccco3)cc2)ccc1Cl | 1.6%
CCc1nnc(NC(=O)c2ccc(Cl)cc2Cl)s1 | 1.4%
CC1SC(c2ccccc2)N(Cc2ccccc2)C1=O (centres undefined) | -16.7%
Cc1c(C(=O)Nc2ccc(Cl)cc2)cnn1-c1ccccc1 | -1.2%
Cc1ccc2[nH]c(C(=O)NN=C3CCCCC3)c(-c3ccccc3)c2c1 | -47.7%
CCN(CC)C(=O)c1sc(NC(=O)c2ccc(OC)cc2OC)c(C(=O)OC(C)C)c1C | -5.3%
Cc1ccc(NC(=O)c2c(NC(=O)C(F)(F)F)sc3c2CCCCC3)c(C)c1 | 1.4%
COc1ccc(-c2noc(COc3ccc(Br)cc3)n2)cc1 | 2.7%
COc1c(Cl)ccc(Cl)c1C(=O)NCCc1nc2ccccc2[nH]1 | -5.5%
COc1ccc(C2(C)C(=O)c3ccccc3C2=O)cc1 | -0.3%
Cc1ccc(NC(=O)CC2Nc3ccccc3NC2=O)cc1Cl (centres undefined) | -1.7%
COc1ccc(C(=O)CC(Nc2ccc(Cl)cc2)c2ccc(Cl)cc2)cc1 (centres undefined) | -19.3%
COc1ccc(C2=C/C(=C\c3ccc4c(c3)OCO4)C(=O)O2)cc1 | 117%
CC(c1ccccc1)C1C(C#N)=C(N)Oc2n[nH]c(-c3ccccc3)c21 (centres undefined) | -7.7%
O=C(Nc1cccc(Cl)c1)Nc1nnc(-c2ccncc2)s1 | 12.3%
CCN(CC)c1ccc(NC(=O)c2cc3ccccc3o2)cc1 | 12.9%

Compound | displacement
C/C(=N/NS(=O)(=O)c1ccccc1)c1ccc(NC(=O)C(F)(F)F)cc1 | -9.7%
CNc1ccc(Cl)cc1C(O)c1ccccc1 (centres undefined) | 14.7%
COC(=O)c1sccc1NS(=O)(=O)c1ccc(Cl)cc1 | 11%
O=C(/C=C/c1ccccc1)N1CCc2ccccc21 | -5.5%
Clc1ccccc1CN1CCN(N=Cc2cccs2)CC1 | -4%
COC(=O)c1ccc(/C=N/NC(=O)COc2ccc(I)cc2)cc1 | 3%
Cc1ccc(Nc2cc(-n3nc(C)cc3C)ncn2)cc1 | -2.5%
CNC(=S)NCCc1c[nH]c2ccc(OC)cc12 | -3.2%
CC1(C)CC(=O)C2=C(C1)Nc1ccccc1N(C(=S)Nc1ccccc1)C2c1ccc2c(c1)OCO2 (centres undefined) | -4.5%
O=C(Nc1ccc(I)cc1Cl)c1cc2ccccc2o1 | -0.2%
O=C(/C=C/NNC(=O)c1ccccc1)c1ccc(Br)cc1 | -6.1%
Cc1ccc(C(=O)N/C(=C/c2cccnc2)C(=O)Nc2ccc(Br)cc2)cc1 | -10.5%
Cc1cccn2c(=O)c(C=O)c(N3CCCCC3)nc12 | 3.9%
COc1ccc2c(=O)c(Oc3ccccc3Br)coc2c1 | 11.6%
CCSc1nc2sc3c(c2c2nnnn12)CCN(C)C3 | 18.6%
Cc1ccc(S(=O)(=O)Nc2cc(C(C(=O)OC(C)C)C(=O)C(F)(F)F)c(O)c3ccccc23)cc1 (centres undefined) | -5.6%
CS(=O)(=O)N1CCN(c2ccc([N+](=O)[O-])c(N3CCCC3)c2)CC1 | 0.7%
O=C1NC(=S)N/C1=C\c1ccc(F)c(Br)c1 | -5.1%
COC(=O)CN(c1ccc(Br)cc1)S(=O)(=O)c1ccccc1 | 6.2%
COc1ccc(C2NC(=O)NC(C)=C2C(=O)Nc2ccc(C)cc2)cc1OC (centres undefined) | 1.9%
CCC1CCCCN1S(=O)(=O)c1ccc(C)c(C)c1 (centres undefined) | -10.7%
COc1ccc(NC(=O)CSc2ccccc2N)c([N+](=O)[O-])c1 | 3%
Cc1cc(Br)cc2c(N=NC(=O)c3cccnc3)c(O)[nH]c12 | 7.8%

Compound | displacement
Cc1cc(/C=C2\NC(=O)NC2=O)c(C)n1-c1cccc([N+](=O)[O-])c1 | 10.6%
O=C(c1ccccc1Cl)N1CCN(c2nc(-c3ccccc3)c3cc(Br)ccc3n2)CC1 | -5.8%
Cc1c(C(c2ccc(I)o2)c2c(C)n(C)n(-c3ccccc3)c2=O)c(=O)n(-c2ccccc2)n1C | -2.8%
CC1=NNC(=O)C1CCC(=O)N/N=C(\C)c1cccc([N+](=O)[O-])c1 (centres undefined) | -10.8%
O=C(O)C1CCCN1C(=O)Oc1ccccc1 (centres undefined) | 5.6%
CCOC(=O)c1cnn(CCOc2ccccc2)c1N | 2.7%
COC(=O)COc1ccc2ccc(=O)oc2c1 | 9.2%
NC(=O)CSc1nc2ccc(Br)cc2[nH]1 | 0.6%
COc1ccc2nc(SCC(=O)Nc3ccc(C)cc3)[nH]c2c1 | -11.5%
CCc1cc(C)cc(OCCOc2cccc(C=C3C(=O)NC(=O)NC3=O)c2)c1 | -10.4%
CNc1ccc(SC(F)(F)F)cc1C(=O)c1ccccc1 | 11.3%
CC1=NN(C(=O)c2ccc(Cl)cc2)C(O)(c2cccnc2)C1 (centres undefined) | 9.1%
O=[N+]([O-])c1ccc(CSc2cccc3cccnc23)cc1 | -2.4%
Cc1ccc2c(c1)N1C(=O)c3ccccc3C1C1=C(CC(C)(C)CC1=O)N2 (centres undefined) | -6.7%
COc1ccc2c(=O)cc(C(F)(F)F)oc2c1 | 5.1%
CC(=O)C1=C(O)C(=O)N(c2nc3ccccc3s2)C1c1ccc(F)cc1 (centres undefined) | -5.2%
CCOc1ccc(NC(=O)CN(Cc2ccccc2)S(=O)(=O)c2ccc(OC)c(OC)c2)cc1 | 10%
COc1cc(OC)cc(C(=O)NCCC2=CCCCC2)c1 | -6.6%
Cc1ccc(NC(=O)CSc2nc(O)c(Cc3ccccc3)c(=O)n2-c2ccccc2)cc1 | 10.6%
COc1ccccc1OCC(=O)Nc1nc(-c2cccs2)c(NC(=O)c2ccccc2)s1 | 9.7%
CSc1ccccc1N=Cc1nc(-c2ccco2)oc1O | -3.1%
O=C(c1cc(-c2ccccc2)nc2ccccc12)N1CCc2ccccc2C1 | 10.1%
